PubChem BioAssay AID624417 (National Center for Advancing Translational Sciences (NCATS), 2012)
Among all 410,000 compounds or so, about 6,400 (1.6%) were called active. Inconclusive means that the source gave no clear call. Such entries were picked first, then a sample of the others. The call rests on the fitted dose curve; in most records, active means well fitted inhibition curve with a large enough effect; inconclusive means small, poorly fitted or top-dose-only effect; inactive means no such curve, though single readings can be large or run the other way. No potency is given beside an inconclusive call; the fits are too rough.

Biological target: Glucagon-like peptide 1 receptor (Homo sapiens) (UniProt P43220)
Test: qHTS of GLP-1 Receptor Inverse Agonists (Inhibition Mode); further: nearly all actives have a fitted effect of over 55% in size
Details: HEK293 GLP-1R CRE-luciferase, luminescence, 24 h, GLP-1R form is constitutively active; series mostly up to 38.3 µM
How it was run: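 Luminescence readout: a drop in cAMP-driven luciferase signal flags inverse agonism at a constitutively active GLP-1R stably expressed in HEK293. Compound exposure lasted 24 hr at 37 deg C, 5% CO2.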
Potency means the concentration at half of the fitted maximal effect; tags describe the fitted curve by direction and shape.

Chain of UniProt P43220 (P43220 whole entry, looked up): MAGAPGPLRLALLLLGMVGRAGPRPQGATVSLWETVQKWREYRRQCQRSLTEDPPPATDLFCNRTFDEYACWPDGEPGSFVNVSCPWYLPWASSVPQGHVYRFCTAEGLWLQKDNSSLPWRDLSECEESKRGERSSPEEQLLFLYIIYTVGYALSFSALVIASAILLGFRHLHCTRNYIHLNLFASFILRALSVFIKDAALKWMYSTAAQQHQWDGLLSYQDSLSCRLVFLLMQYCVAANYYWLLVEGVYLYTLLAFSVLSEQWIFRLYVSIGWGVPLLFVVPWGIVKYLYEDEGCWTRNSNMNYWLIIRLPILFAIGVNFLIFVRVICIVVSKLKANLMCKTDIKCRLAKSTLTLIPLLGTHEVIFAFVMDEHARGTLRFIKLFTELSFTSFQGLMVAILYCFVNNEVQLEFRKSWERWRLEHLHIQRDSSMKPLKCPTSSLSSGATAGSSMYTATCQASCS

SMILES | Potency
CCOC(=O)c1ccc(NC(=O)CSc2nnc(C3CCCCC3)n2C)cc1 | inconclusive [inhibitor, single point]
CC12CCC(C(=O)N/N=C/c3ccc(O)cc3O)(OC1=O)C2(C)C (centres undefined) | inconclusive [inhibitor, single point]
CC(OC(=O)C1CCN(S(=O)(=O)c2ccc(C(C)(C)C)cc2)CC1)C(=O)N1CCOCC1 (centres undefined) | inconclusive [inhibitor, partial curve, poor fit]
COc1ccc(NC(=S)Nc2ccc(OCc3ccccc3)cc2)c(OC)c1 | inconclusive [inhibitor, single point]
CC(NC(=O)c1cc(COc2ccc3ncccc3c2)on1)c1ccc(F)cc1 (centres undefined) | active: 1.78 µM
Cc1nnc(NC(=O)c2sc3ccccc3c2Cl)s1 | inconclusive [inhibitor, single point]
CC(C)(C)CC(C)(C)c1ccc(O)c(CN2CCN(CCC#N)CC2)c1 | active: 11.2 µM
Cc1cc(C(=O)COC(=O)c2ccc(Cl)c(S(N)(=O)=O)c2)c(C)n1CC1CCCO1 (centres undefined) | inconclusive [inhibitor, partial curve, poor fit]
Clc1ccccc1Cc1noc(CN2CCCCC2CCc2ccccn2)n1 (centres undefined) | inconclusive [inhibitor, single point]
Fc1cccc2sc(Nc3nnc(-c4ccco4)o3)nc12 | inconclusive [inhibitor, partial curve, poor fit]
O=C(Nc1nnc(SCC(=O)N2CCCc3ccccc32)s1)c1ccc2ccccc2c1 | inconclusive [inhibitor, single point]
COc1cc(OC)cc(C(=O)NC2CCCN(Cc3ccc(Cl)cc3)C2)c1 (centres undefined) | active: 11.2 µM
Cc1ccc(C(=O)N2CCC(C)CC2)cc1S(=O)(=O)N1CCCCC1 | inconclusive [inhibitor, single point]
Cc1ccc(Nc2ncnc3c2cnn3-c2ccccc2)c(C)c1 | inconclusive [inhibitor, single point]
CC(C)NC(=O)N1CC(c2ccccc2)C(c2ccc(Cl)cc2)=N1 (centres undefined) | active: 3.98 µM
O=C(Nn1c(O)c(C=C2N=c3ccccc3=N2)sc1=S)c1cccc(Cl)c1 | inactive
COc1ccc(C(=O)N/C(=C/c2cccs2)c2nc3ccccc3[nH]2)cc1OC | inactive
O=S(=O)(c1ccc(Cl)nc1)N(Cc1ccccc1)Cc1ccccc1 | inconclusive [inhibitor, single point]
COc1ccc(N2CCN(C(=O)c3c(C)oc4ncnc(N5CCCCC5)c34)CC2)cc1 | active: 11.2 µM
COc1cccc(N2C(=O)C(CC(=O)Nc3ccc(Cl)cc3)N(Cc3ccc4c(c3)OCO4)C2=O)c1 (centres undefined) | inconclusive [inhibitor, single point]
CC(C)(C)S(=O)N1Cc2cc(C(=O)N[C@@H]3CCN(Cc4ccccc4)C3)nc(-c3cccc(-c4cc5ccccc5o4)c3)c2[C@@H]1CCO (some centres undefined) | inconclusive [inhibitor, partial curve]
Cc1ccc(C(C(=O)NC2CCCC2)N(Cc2ccc(F)cc2)C(=O)c2csnn2)o1 (centres undefined) | inconclusive [inhibitor, partial curve, poor fit]

SMILES | Potency
CCn1c(=O)c2sccc2n2c(CCCC(=O)N3CCN(c4ccc(OC)cc4)CC3)nnc12 | inactive
CCOC(=O)CSc1nc(-c2ccccc2)cc(C(F)(F)F)n1 | inconclusive [inhibitor, single point]
COc1cc(NC(=O)CN2CCN(c3ccccc3F)CC2)c(C)cc1[N+](=O)[O-] | inactive
O=C1CC(c2ccccc2)Cc2[nH]c(=O)c(C(=O)Nc3ccc(OC(F)(F)F)cc3)cc21 (centres undefined) | inactive
CC(C)C[C@H]1COc2cccc(N3CCN(Cc4ccccc4F)CC3)c2S(=O)(=O)N1 | inconclusive [inhibitor, single point]
CC(C)CNc1ncnc2c1ncn2[C@H]1CN(Cc2cccc3ccccc23)C[C@@H](CO)O1 | inconclusive [inhibitor, single point]
CCOc1ccc(-c2cccc(NC(=O)c3cccs3)c2)nn1 | inconclusive [inhibitor, single point]
O=C(COc1ccc(Br)cc1Cl)NC(=O)NC1CCCC1 | active: 3.55 µM
O=C(CSc1nnc(-c2ccccc2)n1Cc1ccco1)NCc1ccc2c(c1)OCO2 | inconclusive [inhibitor, partial curve, poor fit]
CC1(C)CC(=O)C2=C(C1)OC1=C(C(=O)CC(C)(C)C1)C2c1ccc(O)cc1O | inconclusive [inhibitor, partial curve, poor fit]
CCN(CC)c1ccc(/C=N/Nc2nc(C)cc(C)n2)cc1 | active: 11.2 µM
COC(=O)c1cc(=O)n(Cc2ccc(OC)c(OC)c2)c(=Nc2ccc(F)cc2)s1 | inconclusive [inhibitor, full curve]
CSc1nc(NCCN(C)C)c2sc3nc(-c4ccco4)c4c(c3c2n1)CCC4 | inconclusive [inhibitor, single point]
Clc1ccc(COn2nnc3ccccc32)c(Cl)c1 | inconclusive [inhibitor, single point]
Cc1cccc(N2CCN(C(=O)C(Cc3ccccc3)n3cccc3)CC2)c1C (centres undefined) | inconclusive [inhibitor, single point]
CCOC(=O)C(C(=O)Nc1ccccc1)C1CCCCC1 (centres undefined) | inconclusive [inhibitor, single point]
CC(C)Cc1cc(C(=O)N2N=C(C(F)F)CC2(O)C(F)F)c2ccccc2n1 (centres undefined) | inconclusive [inhibitor, partial curve, poor fit]
COc1ccc(N(Cc2cccs2)C(=O)Nc2cccc(Cl)c2)cc1 | active: 10 µM
CCOc1ccc(NC(=O)C(=O)NCC(c2cccnc2)N2CCc3ccccc32)cc1 (centres undefined) | inconclusive [inhibitor, single point]
O=C(Nc1cccc(Cl)c1)Nc1nnc(CC2=CCCCC2)s1 | inconclusive [inhibitor, partial curve, poor fit]
COc1ccc(-c2nc(SCC(=O)NC3CCCC3)c(-c3ccc(C)cc3)[nH]2)cc1OC | inconclusive [inhibitor, single point]
COc1ccc(C2CC(=O)N(CC(=O)Nc3ccc(C)c(Cl)c3)c3ccccc3S2)cc1OC (centres undefined) | inconclusive [inhibitor, single point]

SMILES | Potency
CCN(CC(=O)NCc1ccc(Cl)cc1)C(=O)c1cnc(Cl)c(Cl)c1 | inconclusive [inhibitor, single point]
CC(C)n1c(=O)c2ccccc2n1Cc1cn(C2CCCC2)nn1 | inactive
CCCCOCCCNC(=O)CCCOc1ccccc1 | inconclusive [inhibitor, full curve, poor fit]
COc1cccc(NC(=O)CCc2c(C)nc3ncnn3c2C)c1 | inactive
Cc1noc(C)c1CSc1nc2ccccc2nc1NS(=O)(=O)c1ccc(Cl)cc1 | inconclusive [inhibitor, full curve, poor fit]
CC(NC(=O)Cn1nc(-c2ccccc2)c2ccccc2c1=O)c1ccccc1 (centres undefined) | inconclusive [inhibitor, single point]
Cc1[nH]n2c(=O)c3c(nc2c1-c1ccc(Cl)cc1)CCC3 | inactive
CCCCNC(=O)CSc1nc2cc3c(cc2c(=O)n1CCCCCC(=O)NCc1ccc(OC)cc1)OCO3 | inactive
CCOc1ccc(S(=O)(=O)N(C)c2ccc(OCC(=O)NCc3ccco3)cc2)cc1 | inconclusive [inhibitor, single point]
CCOc1ccc(NC(=O)CN(C)C(=O)c2cc([N+](=O)[O-])ccc2N2CCCCC2)cc1OCC | inconclusive [inhibitor, partial curve, poor fit]
CC(C)c1c(O)ccc2c1CC[C@H]1C(C)(C)CCC[C@]21C | inconclusive [inhibitor, partial curve, poor fit]
COC(=O)[C@@]12C[C@@H](CC(=O)N3CCCCC3)C(=O)N(Cc3ccccc3)C1=CCC(C)(C)C2 | inconclusive [inhibitor, partial curve, poor fit]
CC(C)Oc1cccc(C(=O)C2CCCN(Cc3cnc(N4CCOCC4)s3)C2)c1 (centres undefined) | inconclusive [inhibitor, partial curve, poor fit]
Fc1ccc(OCc2nnc(-c3ccccc3Br)o2)c(Cl)c1 | inconclusive [inhibitor, single point]
O=C(CSc1ccc(-c2ccccn2)nn1)Nc1cccc(F)c1 | inactive
Cc1ccc(S(=O)(=O)N2CCN(Cc3cc(C(C)(C)C)ccc3O)CC2)cc1 | inconclusive [inhibitor, single point]
CCOc1cc(C(=S)N2CCN(C)CC2)ccc1OCC(=O)N1CCCC1 | inactive
CC1CCCC(C)N1C(=O)c1cc(-c2cccs2)on1 (centres undefined) | inconclusive [inhibitor, partial curve, poor fit]
Cc1cccc(C)c1NC(=O)C(c1ccccc1)n1c(=O)c(-c2cc3ccccc3[nH]2)nc2ccccc21 (centres undefined) | inconclusive [inhibitor, single point]
COC(=O)C1(Cc2cc(-c3ccc([N+](=O)[O-])cc3)no2)CCN(C(=O)OC(C)(C)C)CC1 | inconclusive [inhibitor, single point]
